# Assay results reported in the supplement of paper PMC10037445.
# Values joined by “and” are separate entries in the source; they are usually repeats but may differ in a detail not shown here. Equal values may be shown once. The full ranking holds about 2,900 compounds; the median of “NF-kB SEAP reporter activity, fold change vs agonist alone” is about 0.99, and the highest 2% start at about 2.6. Some of the results follow.
# Columns and labels:
# RAW-Dual [1] = experiment: NF-kB SEAP reporter activity, fold change vs agonist alone; cytotoxicity flag (confluency mask): not cytotoxic; higher = enhanced NF-kB activity
# Procedure, shortened: (§1)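 Supernatant from RAW-Dual macrophages was read after 20 hours for IRF by QuantiLuc luminescence and for NF-κB by QuantiBlue absorbance at 620 nm. The cells (50,000 cells/well in DMEM, 384-well plates, 37 °C, 5% CO2) had received 50 nL of library stock by pin tool and, 1 h later, a PRR agonist. Reporter activity is expressed relative to agonist-alone wells as fold change, and wells were flagged cytotoxic if IncuCyte confluency was under 70% of agonist controls in both mask sets.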
# RAW-Dual [2] = experiment: NF-kB SEAP reporter activity, fold change vs agonist alone; higher = enhanced NF-kB activity; details: library stock concentration (final ~1000-fold dilution): 10 mM
# Procedure, shortened: as §1
# RAW-Dual [3] = experiment: NF-kB SEAP reporter activity, fold change vs agonist alone; cytotoxicity flag (confluency mask): cytotoxic (confluency <70% of control); higher = enhanced NF-kB activity
# Procedure, shortened: as §1
# [4] = agonist: ODN 1826 (TLR9) 0.5 ug/mL
# [5] = agonist: Pam2CSK4 (TLR2/6) 0.1 ug/mL
# [6] = agonist: Pam3CSK4 (TLR2/1) 0.1 ug/mL
# [7] = cytotoxicity flag (confluency mask): cytotoxic (confluency <70% of control), agonist: Imiquimod (TLR7) […]
# [8] = cytotoxicity flag (confluency mask): not cytotoxic, agonist: Imiquimod (TLR7) […]
# [9] = cytotoxicity flag (confluency mask): not cytotoxic, agonist: MPLA (TLR4) […]
smiles,measurement,setting,value
O=C(O)C(O)Cc1ccc(O)c(O)c1 (stereo not given) (library stock concentration (final ~1000-fold dilution): 10 mM),NF-kB SEAP reporter activity,RAW-Dual [1]; agonist: LPS (TLR4) 0.1 ug/mL,1.04
same,NF-kB SEAP reporter activity,RAW-Dual [1]; [4],0.964
same,NF-kB SEAP reporter activity,RAW-Dual [1]; [5],0.768
same,NF-kB SEAP reporter activity,RAW-Dual [1]; [6],1.02
C[n+]1cc2c3c(ccc2c2ccc4cc5c(cc4c21)OCO5)OCO3,NF-kB SEAP reporter activity,RAW-Dual [2]; [7],0.141
C[n+]1cc2c3c(ccc2c2ccc4cc5c(cc4c21)OCO5)OCO3 (library stock concentration (final ~1000-fold dilution): 10 mM),NF-kB SEAP reporter activity,RAW-Dual [3]; agonist: LPS (TLR4) 0.1 ug/mL,0.268 and 0.364
same,NF-kB SEAP reporter activity,RAW-Dual [3]; [4],0.177 and 0.164
same,NF-kB SEAP reporter activity,RAW-Dual [3]; [6],0.137 and 0.144
Cc1cc(C)c(Nc2ccnc(Nc3ccc(C#N)cc3)n2)c(C)c1 (library stock concentration (final ~1000-fold dilution): 10 mM),NF-kB SEAP reporter activity,RAW-Dual [3]; agonist: LPS (TLR4) 0.1 ug/mL,0.831
same,NF-kB SEAP reporter activity,RAW-Dual [3]; [4],0.415
same,NF-kB SEAP reporter activity,RAW-Dual [3]; [5],0.452
same,NF-kB SEAP reporter activity,RAW-Dual [3]; [6],0.382
Cc1cc(C)c(Nc2ccnc(Nc3ccc(C#N)cc3)n2)c(C)c1,NF-kB SEAP reporter activity,RAW-Dual [2]; [7],0.925
same,NF-kB SEAP reporter activity,"RAW-Dual [2]; cytotoxicity flag (confluency mask): cytotoxic (confluency <70% of control), agonist: MPLA (TLR4) […]",1.53
O=C(c1ccc(Nc2nccc(-c3cc4ccccc4s3)n2)cc1)N1CCC(N2CCCC2)CC1 (library stock concentration (final ~1000-fold dilution): 10 mM),NF-kB SEAP reporter activity,RAW-Dual [3]; agonist: LPS (TLR4) 0.1 ug/mL,0.302 and 0.283
same,NF-kB SEAP reporter activity,RAW-Dual [3]; [4],0.179 and 0.19
same,NF-kB SEAP reporter activity,RAW-Dual [3]; [5],0.0736 and 0.0841
same,NF-kB SEAP reporter activity,RAW-Dual [3]; [6],0.128 and 0.186
Cc1nn(-c2ccccc2)c(C)c1/C=N/N1CCN(Cc2ccccc2)CC1,NF-kB SEAP reporter activity,RAW-Dual [2]; [8],0.964
same,NF-kB SEAP reporter activity,RAW-Dual [2]; [9],1.08
Cc1nn(-c2ccccc2)c(C)c1/C=N/N1CCN(Cc2ccccc2)CC1 (library stock concentration (final ~1000-fold dilution): 10 mM),NF-kB SEAP reporter activity,RAW-Dual [1]; agonist: LPS (TLR4) 0.1 ug/mL,1.23
same,NF-kB SEAP reporter activity,RAW-Dual [1]; [4],0.972
same,NF-kB SEAP reporter activity,RAW-Dual [1]; [5],0.885
same,NF-kB SEAP reporter activity,RAW-Dual [1]; [6],0.968
O=C(/C=C/c1ccccc1)NC(NC(=S)Nc1cccc2cccnc12)C(Cl)(Cl)Cl (stereo not given) (library stock concentration (final ~1000-fold dilution): 10 mM),NF-kB SEAP reporter activity,RAW-Dual [1]; agonist: LPS (TLR4) 0.1 ug/mL,0.779
same,NF-kB SEAP reporter activity,RAW-Dual [1]; [4],0.429
same,NF-kB SEAP reporter activity,RAW-Dual [1]; [5],0.288
same,NF-kB SEAP reporter activity,RAW-Dual [1]; [6],0.388
O=C(/C=C/c1ccccc1)NC(NC(=S)Nc1cccc2cccnc12)C(Cl)(Cl)Cl (stereo not given),NF-kB SEAP reporter activity,RAW-Dual [2]; [8],0.628
same,NF-kB SEAP reporter activity,RAW-Dual [2]; [9],0.833
CC(C)C(C(=O)Nc1ccc(C(=O)NO)cc1)c1ccccc1 (stereo not given) (library stock concentration (final ~1000-fold dilution): 10 mM),NF-kB SEAP reporter activity,RAW-Dual [1]; agonist: LPS (TLR4) 0.1 ug/mL,4.76
same,NF-kB SEAP reporter activity,RAW-Dual [1]; [4],0.93
same,NF-kB SEAP reporter activity,RAW-Dual [1]; [5],1.12
same,NF-kB SEAP reporter activity,RAW-Dual [1]; [6],1.15
CC(C)C(C(=O)Nc1ccc(C(=O)NO)cc1)c1ccccc1 (stereo not given),NF-kB SEAP reporter activity,RAW-Dual [2]; [8],0.965
same,NF-kB SEAP reporter activity,RAW-Dual [2]; [9],0.937
Cl.Cl.Clc1ccc(Nc2nnc(Cc3ccncc3)c3ccccc23)cc1 (library stock concentration (final ~1000-fold dilution): 10 mM),NF-kB SEAP reporter activity,RAW-Dual [1]; agonist: LPS (TLR4) 0.1 ug/mL,0.846
same,NF-kB SEAP reporter activity,RAW-Dual [1]; [4],0.959
same,NF-kB SEAP reporter activity,RAW-Dual [1]; [5],0.625
same,NF-kB SEAP reporter activity,RAW-Dual [1]; [6],0.736
